Data taken from the supplement of paper PMC8728848.
The other results are listed elsewhere or left out.

Key:
Test in all cases: glycan array binding signal (z-score within array); higher = stronger binding
Details in all cases: glycan notation: IUPAC condensed, linker removed
Fuc(a1-2)Gal = target: Fuc(a1-2)Gal
How it was run: (§1)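 Negative Z-scores can be read as non-binding. The Z-score is calculated within each array and then averaged across arrays of one protein sequence at different concentrations or buffers and across linkers. Arrays, 3228 in all, were curated from the Consortium for Functional Glycomics database and kept only where the protein sequence was available.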

Fuc(a1-2)Gal(b1-3)GalNAc = target: Fuc(a1-2)Gal(b1-3)GalNAc
How it was run: as §1

[1] = target: Fuc(a1-2)Gal(b1-3)GalNAc(a1-3)[Fuc(a1-2)]Gal(b1-4)Glc
How it was run: as §1

[2] = target: Fuc(a1-2)Gal(b1-3)GalNAc(a1-3)[Fuc(a1-2)]Gal(b1-4)GlcNAc
How it was run: as §1

[3] = target: Fuc(a1-2)Gal(b1-3)GalNAc(b1-3)Gal
How it was run: as §1

[4] = target: Fuc(a1-2)Gal(b1-3)GalNAc(b1-3)Gal(a1-4)Gal(b1-4)Glc
How it was run: as §1

[5] = target: Fuc(a1-2)Gal(b1-3)GalNAc(b1-4)[Neu5Ac(a2-3)]Gal(b1-4)Glc
How it was run: as §1

Fuc(a1-2)Gal(b1-3)GlcNAc = target: Fuc(a1-2)Gal(b1-3)GlcNAc
How it was run: as §1

[6] = target: Fuc(a1-2)Gal(b1-3)GlcNAc(b1-2)Man(a1-3)[Fuc(a1-2)Gal(b1-3)GlcNAc(b1-2)Man(a1-6)]Man(b1-4)GlcNAc(b1-4)GlcNAc
How it was run: as §1

[7] = target: Fuc(a1-2)Gal(b1-3)GlcNAc(b1-2)Man(a1-3)[Fuc(a1-2)Gal(b1-3)GlcNAc(b1-2)Man(a1-6)]Man(b1-4)GlcNAc(b1-4)[Fuc(a1-6)]GlcNAc
How it was run: as §1

[8] = target: Fuc(a1-2)Gal(b1-3)GlcNAc(b1-3)Gal(b1-4)Glc
How it was run: as §1

[9] = target: Fuc(a1-2)Gal(b1-3)GlcNAc(b1-3)GalNAc
How it was run: as §1

[10] = target: Fuc(a1-2)Gal(b1-3)GlcNAc(b1-3)[Fuc(a1-2)Gal(b1-3)GlcNAc(b1-6)]GalNAc
How it was run: as §1

[11] = target: Fuc(a1-2)Gal(b1-3)GlcNAc(b1-3)[Gal(b1-4)GlcNAc(b1-6)]Gal(b1-4)Glc
How it was run: as §1

[12] = target: Fuc(a1-2)Gal(b1-3)GlcNAc(b1-3)[Neu5Ac(a2-6)Gal(b1-4)GlcNAc(b1-6)]Gal(b1-4)Glc
How it was run: as §1

[13] = target: Fuc(a1-2)Gal(b1-3)GlcNAc6S
How it was run: as §1

[14] = target: Fuc(a1-2)Gal(b1-3)[Fuc(a1-4)]GlcNAc
How it was run: as §1

[15] = target: Fuc(a1-2)Gal(b1-3)[Fuc(a1-4)]GlcNAc(b1-2)Man(a1-3)[Fuc(a1-2)Gal(b1-3)[Fuc(a1-4)]GlcNAc(b1-2)Man(a1-3)]Man(b1-4)GlcNAc(b1-4)GlcNAc
How it was run: as §1

[16] = target: Fuc(a1-2)Gal(b1-3)[Fuc(a1-4)]GlcNAc(b1-2)Man(a1-3)[Fuc(a1-2)Gal(b1-3)[Fuc(a1-4)]GlcNAc(b1-2)Man(a1-6)]Man(b1-4)GlcNAc(b1-4)[Fuc(a1-6)]GlcNAc(b1-4)[Fuc(a1-6)]GlcNAc
How it was run: as §1

[17] = target: Fuc(a1-2)Gal(b1-3)[Fuc(a1-4)]GlcNAc(b1-3)[Fuc(a1-3)[Gal(b1-4)]GlcNAc(b1-6)]Gal(b1-4)Glc
How it was run: as §1

[18] = target: Fuc(a1-2)Gal(b1-3)[Fuc(a1-4)]GlcNAc(b1-3)[Gal(b1-4)GlcNAc(b1-6)]Gal(b1-4)Glc
How it was run: as §1

[19] = target: Fuc(a1-2)Gal(b1-4)Fuc(a1-3)]GlcNAc(b1-2)Man(a1-3)[Fuc(a1-2)Gal(b1-4)[Fuc(a1-3)]GlcNAc(b1-2)Man(a1-6)]Man(b1-4)GlcNAc(b1-4)GlcNAc
How it was run: as §1

Fuc(a1-2)Gal(b1-4)Glc = target: Fuc(a1-2)Gal(b1-4)Glc
How it was run: as §1

Fuc(a1-2)Gal(b1-4)Glc6S = target: Fuc(a1-2)Gal(b1-4)Glc6S
How it was run: as §1

Fuc(a1-2)Gal(b1-4)GlcNAc = target: Fuc(a1-2)Gal(b1-4)GlcNAc
How it was run: as §1

[20] = target: Fuc(a1-2)Gal(b1-4)GlcNAc(b1-2)Man
How it was run: as §1

[21] = target: Fuc(a1-2)Gal(b1-4)GlcNAc(b1-2)Man(a1-3)[Fuc(a1-2)Gal(b1-4)GlcNAc(b1-2)Man(a1-6)]Man(b1-4)GlcNAc(b1-4)GlcNAc
How it was run: as §1

[22] = target: Fuc(a1-2)Gal(b1-4)GlcNAc(b1-2)Man(a1-3)[Fuc(a1-2)Gal(b1-4)GlcNAc(b1-2)Man(a1-6)]Man(b1-4)GlcNAc(b1-4)[Fuc(a1-6)]GlcNAc
How it was run: as §1

[23] = target: Fuc(a1-2)Gal(b1-4)GlcNAc(b1-2)[Fuc(a1-2)Gal(b1-4)GlcNAc(b1-4)]Man(a1-3)[Fuc(a1-2)Gal(b1-4)GlcNAc(b1-2)Man(a1-6)]Man(b1-4)GlcNAc(b1-4)GlcNAc
How it was run: as §1

[24] = target: Fuc(a1-2)Gal(b1-4)GlcNAc(b1-3)Gal(b1-4)GlcNAc
How it was run: as §1

With CTAEGIKKFEGDGYELFKDNFPAGEKFDNDDTNDQFYTVIF [MUB40 (Lactobacillus reuteri)] as the binder, how does the “glycan array binding signal (z-score)” value (Fuc(a1-2)Gal) read?
Its value is -0.147.

What about the “glycan array binding signal (z-score)” value (Fuc(a1-2)Gal(b1-3)GalNAc) of the same binder?
The value was 1.56.

What about the “glycan array binding signal (z-score)” value [1] of the same binder?
Its value is -0.41.

What about the “glycan array binding signal (z-score)” value [2] of the same binder?
The value was -0.399.

What about the “glycan array binding signal (z-score)” value [3] of the same binder?
The value was -0.251.

And the “glycan array binding signal (z-score)” value [4]?
The value was -0.246.

And the “glycan array binding signal (z-score)” value [5]?
Its value is -0.225.

What about the “glycan array binding signal (z-score)” value (Fuc(a1-2)Gal(b1-3)GlcNAc) of the same binder?
Its value is -0.279.

And the “glycan array binding signal (z-score)” value [6]?
Its value is -0.598.

What about the “glycan array binding signal (z-score)” value [7] of the same binder?
The value was -0.613.

And the “glycan array binding signal (z-score)” value [8]?
The value was -0.164.

What about the “glycan array binding signal (z-score)” value [9] of the same binder?
Its value is -0.314.

What about the “glycan array binding signal (z-score)” value [10] of the same binder?
The value was -0.391.

And the “glycan array binding signal (z-score)” value [11]?
Its value is 0.224.

And the “glycan array binding signal (z-score)” value [12]?
The value was 0.536.

What about the “glycan array binding signal (z-score)” value [13] of the same binder?
Its value is 0.088.

And the “glycan array binding signal (z-score)” value [14]?
Its value is -0.273.

What about the “glycan array binding signal (z-score)” value [15] of the same binder?
The value was 0.536.

And the “glycan array binding signal (z-score)” value [16]?
The value was 0.016.

What about the “glycan array binding signal (z-score)” value [17] of the same binder?
The value was -0.461.

What about the “glycan array binding signal (z-score)” value [18] of the same binder?
The value was 0.363.

And the “glycan array binding signal (z-score)” value [19]?
The value was 0.028.

What about the “glycan array binding signal (z-score)” value (Fuc(a1-2)Gal(b1-4)Glc) of the same binder?
The value was -0.432.

What about the “glycan array binding signal (z-score)” value (Fuc(a1-2)Gal(b1-4)Glc6S) of the same binder?
Its value is -0.486.

And the “glycan array binding signal (z-score)” value (Fuc(a1-2)Gal(b1-4)GlcNAc)?
Its value is -0.562.

What about the “glycan array binding signal (z-score)” value [20] of the same binder?
Its value is -0.45.

And the “glycan array binding signal (z-score)” value [21]?
Its value is -0.205.

And the “glycan array binding signal (z-score)” value [22]?
Its value is -0.186.

And the “glycan array binding signal (z-score)” value [23]?
Its value is -0.014.

And the “glycan array binding signal (z-score)” value [24]?
The value was -0.145.
